Measured values reported in a collection of fitness landscapes (doi:10.1016/j.celrep.2020.107928).
In all, about 81,000 sequences were measured (“one-hybrid fitness for binding NBS DNA”: median about -0.1, highest 2% from about 0.36 on). The list shows a part of the results.

B1: Caulobacter ParB omega fusion; a variant is named by its letters at X, in order, B8GW30 (parent)
chain: MESVVVGEPGMSEGRRGLGRGLSALLGEVDAAPAQAPGEQLGGSREAPIEILQRNPDQPRRTFREEDLEDLSNSIREKGVLQPILVRPSPDTAGEYQIVAGERAWRAAQRAGLKTVPIMVRELDDLAVLEIGIIENVQRADLNVLEEALSYKVLMEKFERTQENIAQTIGKSXSHVANXMRLLXLPDEVQSYLVSGELTAXHARAIAAAADPVALAKQIIEGGLSVRETEALARKAPNLSAGKSKGGRPPRVKDTDTQALESDLSSVLGLDVSIDHRGSTGTLTITYATLEQLDDLCNRLTRGI

Variants of: B1
Test: one-hybrid fitness for binding NBS DNA (the Noc-binding site; scaled: cognate 1, non-cognate 0); higher = stronger binding
Conditions: with NBS DNA site
Outline: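 Fitness here means the log change in variant-to-wild-type read ratio between plasmids sequenced before and after selection. That scale was set so cognate equals 1 and non-cognate equals 0. The selection was a bacterial one-hybrid screen of Caulobacter ParB libraries, four specificity codons randomised, in E. coli USO carrying a HIS3 reporter with the site 19 bp from the promoter, grown 48 hours at 37°C on M9-minus-histidine with 0.1 mM IPTG and 5 mM 3-AT.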

TLNV and SLSL cannot be ordered by “one-hybrid fitness for binding NBS DNA” value: at most 0.2 for the first, at most 0.2 for the second.

YSKS and GLLS cannot be ordered by “one-hybrid fitness for binding NBS DNA” value: at most 0.2 for the first, at most 0.2 for the second.

SIHS and KRLY cannot be ordered by “one-hybrid fitness for binding NBS DNA” value: at most 0.2 for the first, at most 0.2 for the second.

RVRF and HIYV cannot be ordered by “one-hybrid fitness for binding NBS DNA” value: at most 0.2 for the first, at most 0.2 for the second.

DSNH and ADLK cannot be ordered by “one-hybrid fitness for binding NBS DNA” value: at most 0.2 for the first, at most 0.2 for the second.

VENL and IKSN cannot be ordered by “one-hybrid fitness for binding NBS DNA” value: at most 0.2 for the first, at most 0.2 for the second.

Going from NAFR to QLKG, the “one-hybrid fitness for binding NBS DNA” value rises from at most 0.2 to 0.245.

First: TVKP
Second: PFKR
The “one-hybrid fitness for binding NBS DNA” value of the first is lower: at most 0.2 for the first, 0.261 for the second.

CHHG and WQNY cannot be ordered by “one-hybrid fitness for binding NBS DNA” value: at most 0.2 for the first, at most 0.2 for the second.

THRT and YRQT cannot be ordered by “one-hybrid fitness for binding NBS DNA” value: at most 0.2 for the first, at most 0.2 for the second.

EKSV and YRER cannot be ordered by “one-hybrid fitness for binding NBS DNA” value: at most 0.2 for the first, at most 0.2 for the second.

HALE and AINC cannot be ordered by “one-hybrid fitness for binding NBS DNA” value: at most 0.2 for the first, at most 0.2 for the second.

SRPG and WYFG cannot be ordered by “one-hybrid fitness for binding NBS DNA” value: at most 0.2 for the first, at most 0.2 for the second.

HIFI and GTAF cannot be ordered by “one-hybrid fitness for binding NBS DNA” value: at most 0.2 for the first, at most 0.2 for the second.

TLLS and QRPL cannot be ordered by “one-hybrid fitness for binding NBS DNA” value: at most 0.2 for the first, at most 0.2 for the second.

GGSR and CPPN cannot be ordered by “one-hybrid fitness for binding NBS DNA” value: at most 0.2 for the first, at most 0.2 for the second.

RPHI and KMFC cannot be ordered by “one-hybrid fitness for binding NBS DNA” value: at most 0.2 for the first, at most 0.2 for the second.

EPAI and LLNH cannot be ordered by “one-hybrid fitness for binding NBS DNA” value: at most 0.2 for the first, at most 0.2 for the second.

FQPG and GQLM cannot be ordered by “one-hybrid fitness for binding NBS DNA” value: at most 0.2 for the first, at most 0.2 for the second.

YVIG and NPWT cannot be ordered by “one-hybrid fitness for binding NBS DNA” value: at most 0.2 for the first, at most 0.2 for the second.

RHLA and FAHW cannot be ordered by “one-hybrid fitness for binding NBS DNA” value: at most 0.2 for the first, at most 0.2 for the second.

RTPW and SMDR cannot be ordered by “one-hybrid fitness for binding NBS DNA” value: at most 0.2 for the first, at most 0.2 for the second.

YARG and WENG cannot be ordered by “one-hybrid fitness for binding NBS DNA” value: at most 0.2 for the first, at most 0.2 for the second.

LEMS and TCWW cannot be ordered by “one-hybrid fitness for binding NBS DNA” value: at most 0.2 for the first, at most 0.2 for the second.

Going from RRQQ to NPFC, the “one-hybrid fitness for binding NBS DNA” value falls from 0.268 to at most 0.2.

TNFL and HIIS cannot be ordered by “one-hybrid fitness for binding NBS DNA” value: at most 0.2 for the first, at most 0.2 for the second.

PYWA and AHPS cannot be ordered by “one-hybrid fitness for binding NBS DNA” value: at most 0.2 for the first, at most 0.2 for the second.

Compared with QRWC, RQKL is lower in “one-hybrid fitness for binding NBS DNA” value: 0.332 for the first, at most 0.2 for the second.

GNKG and EMGL cannot be ordered by “one-hybrid fitness for binding NBS DNA” value: at most 0.2 for the first, at most 0.2 for the second.

QADC and LEEI cannot be ordered by “one-hybrid fitness for binding NBS DNA” value: at most 0.2 for the first, at most 0.2 for the second.

QIAY and MLNT cannot be ordered by “one-hybrid fitness for binding NBS DNA” value: at most 0.2 for the first, at most 0.2 for the second.

ADPA and RPDR cannot be ordered by “one-hybrid fitness for binding NBS DNA” value: at most 0.2 for the first, at most 0.2 for the second.

TWCM and RDQN cannot be ordered by “one-hybrid fitness for binding NBS DNA” value: at most 0.2 for the first, at most 0.2 for the second.

First: QSRP
Second: RDKN
The “one-hybrid fitness for binding NBS DNA” value of the first is higher: 0.242 for the first, at most 0.2 for the second.

RNWR and SKWD cannot be ordered by “one-hybrid fitness for binding NBS DNA” value: at most 0.2 for the first, at most 0.2 for the second.

GSQA and WCSK cannot be ordered by “one-hybrid fitness for binding NBS DNA” value: at most 0.2 for the first, at most 0.2 for the second.

First: VCPR
Second: VCKR
The “one-hybrid fitness for binding NBS DNA” value of the first is lower: at most 0.2 for the first, 0.228 for the second.

LNGM and SLNT cannot be ordered by “one-hybrid fitness for binding NBS DNA” value: at most 0.2 for the first, at most 0.2 for the second.
